Here are results for 80 molecules from ChEMBL document CHEMBL1201862, “PubChem BioAssay data set” (2004).

The structures appear in SMILES notation.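 Five compound concentrations were applied to cells in 96-well plates for 48 hours; endpoints were derived by simple linear interpolation of the resulting dose-response curve. GI50: concentration for 50% inhibition of growth.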 Activity calls are given as the source filed them. Cut-off read from the data, not from the text of the source: active = GI50 up to about 1.1 µM and inactive = higher. Bounds are passed on as bounds.

The test has as its system NCI-H322M. In words: inhibition of tumour cell growth, NCI panel, 48 h.
Take `CN(C)CCNC(=O)c1ccc(NCCCN(C)CCCNc2ccc3c(=O)n(CCN(C)C)c(=O)n4c5ccccc5c(=O)c2c34)c2c(O)c3ccccc3nc12`: the GI50 was active: < 0.01 µM. With `O=C(O)C1(C(=O)O)CCN(S(=O)(=O)c2ccccc2)CC1`, the GI50 is inactive: > 100 µM.

For the molecule `Brc1ccc2c(-c3nc(-c4c[nH]c5ccccc45)cs3)c[nH]c2c1`, the GI50 was inactive: > 43.5 µM. To `O=C1CC(c2cccc(Cl)c2)Nc2ccc(N3CCCC3)cc21` (stereo not given) belongs active: 0.957 µM; to `NC(Cc1ccccc1)c1nn[nH]n1` (stereo not given), inactive: > 100 µM; to `Oc1ccc(Cn2c(-c3ccc(O)cc3)nc3ccccc32)cc1`, inactive: > 100 µM. As for `Cc1ccc(S(=O)(=O)N2CCSCCSCCSCCSCC2)cc1`, the GI50 is inactive: 53.5 µM. For `O=C(O[C@H]1CCN2C[C@H]3C[C@H](CN4C(=O)CCC[C@H]34)[C@@H]2C1)c1ccc(O)cc1`, the GI50 is inactive: > 100 µM. Turning to `ON=C(CC(O)(C(F)(F)Cl)C(F)(F)Cl)CC(O)(C(F)(F)Cl)C(F)(F)Cl`, the GI50 was inactive: 2.07 µM.

Take `O=C(NC(=S)Nc1ccc(Br)cc1)c1ccc2c(c1)Sc1ccccc1S2`: the GI50 was inactive: 20.8 µM. To `CN1C(=O)C(C(N)=O)C2CC1(C)Oc1ccccc12` (stereo not given) belongs inactive: > 100 µM. In the case of `CNS(=O)(=O)NN(C)S(=O)(=O)c1ccc2ccccc2c1`, the GI50 was inactive: > 100 µM.

`CC[N+](C)(CC)CCN1C(=O)c2ccccc2S1(=O)=O`: the GI50 is inactive: > 100 µM. Consider `COc1ccc(NC(=O)CC(=O)NNC(Sc2ccccc2)c2cc(/N=N/c3ccc(Br)cc3)ccc2O)cc1` (stereo not given), for which the GI50 was inactive: > 10 µM. In the case of `COc1cc(C2S/C(=C/c3ccccc3)C(=O)N2c2ccc(Cl)c(Cl)c2)cc(OC)c1OC` (stereo not given), the GI50 is inactive: 32.3 µM. To `CCOC(=O)C(Cl)(NC(=O)NC(Cl)(C(=O)OCC)C(F)(F)F)C(F)(F)F` (stereo not given) belongs inactive: > 100 µM; to `CC(C)(C)OC(=O)NCCc1ccc(N)cc1`, inactive: > 100 µM. As for `C=C(C)C1CCC2=CC(CC3(C)OC3C3=CC(C(=O)OC)=C(C1)O3)OC2=O` (stereo not given), the GI50 is inactive: > 100 µM. Turning to `COC(=O)C1c2cc3c(cc2C(OC2OC(C)C(OC)C(C)(OC)C2OC)CC1(C)O)C(=O)c1c(O)cc2c(c1C3=O)OC1OC2(C)C(O)C([N+](C)(C)[O-])C1O` (stereo not given), the GI50 is active: 0.137 µM. As for `CCCCSC1=N/C(=C\c2ccc(N(C)C)cc2)C(NN)=N1`, the GI50 was inactive: > 100 µM. `CCOC(=O)/C(=C\c1ccc(N(C)C)cc1)S(=O)(=O)C(F)(F)C(F)(F)C(F)(F)C(F)(F)F`: the GI50 is inactive: > 100 µM.

As to `COC1=CC(=O)C2(C=C1OC)OC[C@H]1Oc3c(ccc4c3C=CC(C)(C)O4)C(=O)[C@H]12` (stereo not given in full), the GI50 is inactive: 95.7 µM. In the case of `COC(=O)CC1NC(=O)C1C1(C)OCCO1` (stereo not given), the GI50 was inactive: > 100 µM. As for `CCOC(=O)N1c2ccccc2C(C)=CC(C)C1C` (stereo not given), the figure is inactive: 21.3 µM; as for `N#CCCN(CCC#N)CCN(CCN(CCC#N)CCC#N)CCN(CCC#N)CCC#N`, inactive: > 100 µM.

Regarding `CC(NC(=O)C(NC(=O)C(NC(=O)C(F)(F)F)C(C)C)C(C)C)C(=O)Oc1c(Cl)c(Cl)c(Cl)c(Cl)c1Cl` (stereo not given), the GI50 was inactive: > 100 µM. Consider `C[C@]1(O)CC(=O)c2c(c(-c3ccc4cc5c(c(O)c4c3O)C(=O)C[C@@](C)(O)C5)c3cccc(O)c3c2O)C1`, for which the GI50 was inactive: 10.4 µM. On to `CCOC(=O)CNc1nnnn1C1OC(CO)C(O)C1O` (stereo not given), for which the GI50 is inactive: > 100 µM. Regarding `COC(=O)C(=O)C(C#N)c1cccc(Cl)c1` (stereo not given), the GI50 is inactive: > 100 µM. Turning to `COC1/C=C/C(C)C(C(C)C(OC)C(C)CCC(=O)C(C)C(CCC(=O)O)OC)OC(=O)/C=C/C=C(\C)CC(OC)CC2=CC(=O)O[C@@H](C(C)C(OC)CC(OC)/C=C/C(C)C(OC)C1)[C@H]2O` (stereo not given in full), the GI50 was inactive: 4.33 µM.

Take `CCCCC1=CSC(c2ccccc2)=C(c2ccccc2)S1`: the GI50 is inactive: > 100 µM.

Turning to `C=CCONC(=O)c1ccc(Cl)cc1`, the GI50 is inactive: > 100 µM.

For `CCOc1ccc(NC(=O)/C(CC(=O)c2c[n+]([O-])c3ccccc3[n+]2[O-])=N\OCCCc2ccccc2)cc1`, the GI50 was inactive: > 100 µM.

On to `Cc1cn(C2CC(O)C(CO[Si](C)(C)C(C)(C)C)OC2OC(C)C)c(=O)[nH]c1=O` (stereo not given), for which the GI50 was inactive: 92 µM. As to `O=C(NCCCNCCCCNCCCNC(=O)c1cc(-c2ccccc2)nc2ccccc12)c1cc(-c2ccccc2)nc2ccccc12`, the GI50 was inactive: 3.61 µM. Turning to `COc1cccc(NC(=O)CSc2nnc(-c3ccc(NC(C)=O)cc3)o2)c1`, the GI50 is inactive: > 100 µM. Take `CC1(C)N=C(Oc2ccccc2)n2nccc2N1`: the GI50 is inactive: > 100 µM. For the molecule `CC(=O)NCCc1c(-c2[nH]c3ccccc3c2CCNC(C)=O)[nH]c2ccccc12`, the GI50 is inactive: > 100 µM.

Consider `Cc1ccc2c(c1)/C(=N/Nc1ccccc1[N+](=O)[O-])C(=O)N2`, for which the GI50 was inactive: > 100 µM.

Take `CSc1nc2c(c(=O)n1C)N=C(c1ccc(Cl)cc1)CC(c1ccccc1)N2` (stereo not given): the GI50 was inactive: 30.7 µM.

`C=C1C(=O)OC2CC(C)C3C4OC4C(O)C3(C)C(O)C12` (stereo not given): the GI50 is inactive: 35.7 µM. Consider `Cc1cc(/N=C2\C=C(Nc3cc(C)on3)C(=O)c3ccccc32)no1`, for which the GI50 is inactive: > 100 µM. Turning to `CCOC(=O)C1CCCCN1CCc1c[nH]c2ccccc12` (stereo not given), the GI50 was inactive: 92.3 µM. As for `C=C(CCCO)[C@@H]1CC[C@@](C)(O)[C@H]1C`, the figure is inactive: > 100 µM; as for `NC(=O)/N=C1/CCC2C3CCCC2C13`, inactive: > 100 µM; as for `CC(=O)O[C@@H]1[C@H](OC2CCCCC2(c2ccccc2)c2ccccc2)O[N+]([O-])=CC12CCCCC2` (stereo not given in full), inactive: 16.4 µM. `C=C1C[C@]23CC[C@@H]4C(CO)(CO)CC(=O)C[C@]4(C)[C@@H]2CC[C@H]1C3`: the GI50 was inactive: > 100 µM. `O=C1OC(CC(=O)c2ccc(F)cc2)C(Cl)=C1Cl` (stereo not given): the GI50 is inactive: 18.3 µM.

As to `CC(=O)N(O)c1ccc(-c2nc3ccccc3s2)cc1`, the GI50 is inactive: 97.9 µM. Turning to `O=C(O)c1cc(/N=N/c2ccc([As](=O)(O)O)cc2)ccc1O`, the GI50 was inactive: > 100 µM. With `COc1ccc(/C=C2\N=C(N3CCCCC3)NC2=O)cc1`, the GI50 is inactive: > 100 µM. To `CCOc1ccc(C2=NN(CC)C(=O)C(C3C(=O)N(c4ccccc4)N=C3C)C2)cc1` (stereo not given) belongs inactive: > 100 µM. Consider `O=C1OC(c2ccccc2)=N/C1=C/NC(Cc1ccccc1)C(=O)O` (stereo not given), for which the GI50 was inactive: > 100 µM.

`COc1cc(C2c3cc4c(cc3OC(NNS(=O)(=O)c3ccc(C)cc3)C2C)OCO4)cc(OC)c1OC` (stereo not given): the GI50 is inactive: 1.3 µM. As to `O=C1C2Nc3ccccc3SC2C(=O)N1c1cccc([N+](=O)[O-])c1` (stereo not given), the GI50 was inactive: > 100 µM. Turning to `CC(=O)OCC(C)(COC(C)=O)N1C(=O)C2C3c4ccccc4C(c4ccccc43)C2C1=O` (stereo not given), the GI50 was inactive: > 100 µM. For `COc1ccc(CNc2nc3ccccc3nc2C(=O)O)cc1`, the GI50 was inactive: 27.8 µM. As for `C=CCOC(C)n1c(C)c(Br)c(=O)[nH]c1=O` (stereo not given), the GI50 is inactive: > 100 µM. For `COc1ccc2c(c1)[n+]([O-])c(C(=O)CC(=O)C(=O)Nc1cccc(Cl)c1C)c(C)[n+]2[O-]`, the GI50 is inactive: > 100 µM. Consider `O=CN(CCN1CCCC1)C1CCc2cc(Cl)c(Cl)cc2C1` (stereo not given), for which the GI50 is inactive: 5.85 µM. Consider `COc1cc(/C=C\c2cccnc2)cc(OC)c1OC`, for which the GI50 is inactive: 96.4 µM. With `COc1ccc(/C(Cl)=C(\CN(C)C)c2ccc(OC)c(OC)c2)cc1OC.[B]`, the GI50 is inactive: > 100 µM. Turning to `CC/C=C\C/C=C\C/C=C\CCCCCCCC(=O)OCC`, the GI50 is inactive: > 100 µM. As for `CCCCCC(=O)c1ccc2[nH]c3c(C)cc([N+](=O)[O-])c(C)c3c2c1`, the figure is inactive: > 100 µM; as for `CN(C)c1nc(N(C)C)nc(N(C)CN(C)c2nc(N(C)C)nc(N(C)C)n2)n1`, inactive: > 100 µM. As for `O=C1OC2(c3ccccc3Oc3ccccc32)c2ccccc21`, the figure is inactive: > 100 µM.

Turning to `Cc1ccc2c3c1O[C@H]1c4[nH]c5ccccc5c4C[C@@]4(O)[C@@H](C2)N(CC2CC2)CC[C@]314`, the GI50 was inactive: 17.9 µM. Regarding `CCOC(=O)Nn1c(C)nnc1-c1ccccc1`, the GI50 is inactive: > 100 µM. In the case of `CN(C)c1n/c(=N/c2cccc(Cl)c2)ss1`, the GI50 was inactive: 62.4 µM.

For `CC1=C(C#N)C23C(=O)c4ccccc4C(=O)C2=C(O)C=CC3(O)N1` (stereo not given), the GI50 is inactive: 20.7 µM.

For the molecule `OCc1ccc2[n+](c1)CCC1c3ccccc3NC21` (stereo not given), the GI50 is inactive: 288 µM. Turning to `COc1cc(C2S/C(=C/c3ccccc3)C(=O)N2c2ccc(NC(C)=O)cc2)cc(OC)c1OC` (stereo not given), the GI50 was inactive: 21.4 µM. Consider `N=C(N)C1CN(CCCCCCCCCCN2CC(C(=N)N)C(O)=NC2=O)C(=O)N=C1O` (stereo not given), for which the GI50 is inactive: > 10 µM.

With `N#Cc1c2ccc([N+](=O)[O-])cc2c(=O)n2c1sc1ccc(C(F)(F)F)cc12`, the GI50 was inactive: > 100 µM.

In the case of `CCCc1c(OC)c(=O)c2c(O)cc(OC)c3c4c(OC)cc(O)c5c(=O)c(OC)c(CCC)c(c1c23)c54`, the GI50 was inactive: 11.3 µM. For the molecule `COC(=O)C1C(C(=O)OC)C1(Br)CBr` (stereo not given), the GI50 is inactive: > 100 µM. As to `Nc1ncnc2c1nc(-c1ccccc1)n2C1OC(CO)C(O)C1O` (stereo not given), the GI50 is inactive: > 100 µM. Regarding `O=C(c1ccc([N+](=O)[O-])cc1)C(Br)C(Br)c1ccnc2ccccc12` (stereo not given), the GI50 is inactive: 14.8 µM. In the case of `COc1cc2c(cc1OC)[C@]1(O)C(=O)c3ccc4c(c3O[C@@H]1CO2)C[C@H](C(C)(C)O)O4`, the GI50 is inactive: 8.89 µM. Take `CN(C)Cc1cc(C(=O)/C=C/c2ccc(O)cc2)cc(CN(C)C)c1O`: the GI50 is inactive: 35.8 µM.
